# The whole screen tested about 52,000 compounds, of which about 1,700 (3.3%) were called active. Rule as the data show it: active = survival mostly below about 52% (no sharp cut-off); inactive = mostly above about 56%. This is one part of the list.
# Tested on: Wild type
# Experiment: S. aureus survival, RN4220 and DeltatarO strains – OD600, teichoic acid synthesis inhibitors, primary screen (AID 463173)
# Conditions: S. aureus RN4220 wild type/DeltatarO growth, OD600, 18 h, active compounds read low, screened at 18.75 µg/mL (by protocol)
row,Compound,survival
1,CCCn1c(=NC(=O)c2cc3ccccc3o2)c(C(=O)OCC)cc2c(=O)n3ccccc3nc21,inactive: 66%
2,COc1ccc(N(C(=O)/C=C\C(=O)Nc2ccc(C)cc2)C(C(=O)NCc2ccco2)c2ccc(C)cc2)cc1 (centres undefined),inactive: 63%
3,Cc1c(C(=O)N2CCCCCC2)c(S(=O)(=O)N(Cc2ccccc2)C(C)(C)C)c(C)n1C,inactive: 73%
4,O=S(=O)(c1ccc(-n2cnnn2)cc1)N1CCN(c2cccc(Cl)c2)CC1,inactive: 99%
5,NC1CCC(c2ccccc2)CC1 (centres undefined),inactive: 98%
6,O=c1cc(-c2ccccc2)n2c(SCc3c(F)cccc3Cl)nnc2[nH]1,inactive: 74%
7,Cc1ccc(-n2c(=O)c3cccnc3n2CC(=O)Nc2cc(Cl)ccc2C)cc1,inactive: 124%
8,Cc1ccc(C)c(CN2C(=O)c3ccccc3S(=O)c3ccc(C(=O)N4CCN(c5cccc(Cl)c5)CC4)cc32)c1 (centres undefined),inactive: 140%
9,Cc1ccc(NC(=O)Cn2c(=O)n(CCCCC(=O)NCc3ccccc3Cl)c(=O)c3ccccc32)cc1,inactive: 94%
10,COc1ccccc1OCC(=O)NCC(c1ccc(Cl)cc1)N1CCOCC1 (centres undefined),inactive: 71%
11,O=C(Nc1ccccc1)c1ccc(S(=O)(=O)N2CCCC2)cc1,inactive: 100%
12,Cc1ccc(NC(=O)C(=O)NCc2ccco2)cc1,inactive: 83%
13,Cc1ccc(NC(=O)CN(C)S(=O)(=O)c2cnc[nH]2)cc1,inactive: 71%
14,N=C(N)N1CCN(CC(O)COc2ccccc2)CC1 (centres undefined),inactive: 106%
15,CC(C)CC(=O)NC1(C(F)(F)F)C(=O)Nc2c1c(=O)[nH]c(=O)n2-c1ccccc1 (centres undefined),inactive: 149%
16,CCCc1nn2c(=O)cc(COc3ccc(/C=C(\C#N)C(=O)Nc4ccccc4)cc3)nc2s1,inactive: 80%
17,Cc1cc2ncn(S(=O)(=O)c3ccc(S(N)(=O)=O)cc3)c2cc1C,inactive: 105%
18,COc1ccc(C(CC(=O)NCc2ccccc2Cl)N2Cc3ccccc3C2=O)cc1OC (centres undefined),inactive: 73%
19,Cn1c(-n2cccc2)c(-c2c(-c3ccccc3)[nH]c3c2c(=O)n(C)c(=O)n3C)c(=O)n(C)c1=O,inactive: 109%
20,CCCCOC(=O)c1ccc(NC(=O)CSc2nc3c(c(=O)[nH]2)CCCC3)cc1,inactive: 83%
21,Cc1ccc(-c2nnc(C3CCN(S(=O)(=O)c4ccc(C)c(C)c4)CC3)o2)cc1,inactive: 108%
22,CCOc1ccccc1NC(=O)CN1C(=O)CC(c2ccc(OC)c(OC)c2)Sc2ccccc21 (centres undefined),inactive: 81%
23,Cc1ccccc1CN1C(=O)c2ccccc2Sc2ccc(C(=O)NC(C)c3ccccc3)cc21 (centres undefined),inactive: 81%

row,Compound,survival
1,COc1ccc(NC(=O)CC2C(=O)N(c3ccc(F)cc3)C(=O)N2Cc2ccco2)cc1 (centres undefined),inactive: 90%
2,CCN1CCOC(=O)C1CC(=O)Nc1cc(C)cc(C)c1 (centres undefined),inactive: 122%
3,O=C(NCc1ccc(F)cc1)c1cc2c(=O)n3ccccc3nc2s1,inactive: 155%
4,Cc1ccc(CNC(=O)Cn2c(=O)n(-c3ccc(Cl)cc3)c(=O)c3c(C)c(C)sc32)cc1,inactive: 72%
5,COc1ccc(OC)c(/C=C(/C#N)c2nc(-c3ccc(-c4ccccc4)cc3)cs2)c1,inactive: 71%
6,O=C(NCc1ccccc1)c1nn(-c2ccccc2)nc1CO,inactive: 120%
7,Cc1cc(C)cc(NS(=O)(=O)c2ccc3[nH]cc(C(=O)N(C)Cc4ccccc4)c(=O)c3c2)c1,inactive: 111%
8,Cc1ccc(N2C(=O)CCSC23C(=O)N(Cc2ccccc2)c2ccccc23)cc1F (centres undefined),inactive: 68%
9,COC(=O)c1ccccc1NC(=O)c1ccc2c(c1)CCN2S(C)(=O)=O,inactive: 110%
10,COc1cc(Nc2ncc3c(n2)CCN(Cc2cc(Br)cs2)C3)cc(OC)c1,inactive: 105%
11,Cc1cc(Nc2ccc(F)cc2)n2c(nc3ccccc32)c1C#N,inactive: 68%
12,Cc1ccc(CSc2nc3c([nH]c4ccccc43)c(=O)n2C)cc1,inactive: 71%
13,Cc1c(-c2nc(-c3ccccc3)no2)nnn1-c1cccc(C(F)(F)F)c1,inactive: 71%
14,CCCCNc1nc2c(S(=O)(=O)c3ccc(C)c(C)c3)nnn2c2ccsc12,inactive: 89%
15,N#CCCCSc1nnc(Cc2ccc3c(c2)OCO3)o1,inactive: 107%
16,Cc1nn2c(-c3ccco3)ccnc2c1-c1ccc(F)cc1,inactive: 75%
17,COc1ccccc1CNC(=O)c1ccc2c(c1)nc(C)n2-c1ccccc1OC,inactive: 98%
18,COc1ccc(/C=C(\NC(=O)c2ccccc2)C(N)=O)cc1,inactive: 111%
19,COc1ccc(NC(=O)c2cccn2-c2nnc(N3CCCCC3)s2)cc1Cl,inactive: 69%
20,COc1ccccc1NC(=O)CN1CCCN(S(=O)(=O)c2ccc(Br)cc2)CC1,inactive: 59%
21,Cc1nc2ccccn2c(=O)c1NC(=O)c1ccc(C(F)(F)F)cc1,active: -2%
22,Cc1ccc(NC(=O)Cn2c(=O)n(CCCCC(=O)NCc3ccccc3Cl)c(=O)c3ccccc32)cc1C,inactive: 74%
23,CCOc1ccc(NC(=O)Cn2c(C)cc3ccccc3c2=O)cc1,inactive: 75%

row,Compound,survival
1,CCOC(=O)c1ccccc1NC(=O)c1sc2ncn(Cc3cccc(F)c3)c(=O)c2c1C,inactive: 68%
2,O=C(O)c1ccc(-n2c(/C=C\c3ccc(O)cc3)nc3ccccc3c2=O)cc1,inactive: 81%
3,Cc1ccc(C2=Nc3ccccc3N(CC(=O)NCc3ccc(F)cc3)C(=O)C2)cc1C,inactive: 97%
4,COc1ccc(/C=C(\C#N)c2nc(-c3cc4c(ccc5ccccc54)oc3=O)cs2)cc1O,inactive: 79%
5,COc1ccc(C(=O)Nc2cccc(OCc3cc(=O)n4c5c(sc4n3)CCCC5)c2)cc1,inactive: 80%
6,Cn1c(=O)c2c(nc3n(-c4ccc(O)cc4)c(-c4ccc(Br)cc4)cn23)n(C)c1=O,inactive: 142%
7,CC1=C(C(=O)Nc2cccnc2)C(c2ccc(Cl)cc2)n2nc(-c3ccccc3)nc2N1 (centres undefined),inactive: 71%
8,COc1ccc(OC)c(S(=O)(=O)NCc2cccn2Cc2cccc(C)c2)c1,inactive: 69%
9,Nc1cc(N)nc(SCCN2CCOCC2)n1,inactive: 115%
10,Cc1ccc(C)c(NC(=O)CSc2c3c(nc4ccc(Cl)cc24)CCCC3)c1,inactive: 83%
11,COc1cn(CC(=O)Nc2cccc(C)c2C)c(CN2CCCCC2)cc1=O,inactive: 99%
12,COc1cccc(C(=O)c2cn(CC(=O)NCc3ccccc3)c3nc(C)ccc3c2=O)c1,inactive: 71%
13,COc1ccc(OCc2nc3c4c(-c5ccccc5)c(-c5ccccc5)oc4ncn3n2)cc1,inactive: 71%
14,COc1ccc(CNC(=O)CSc2nc3ccccc3nc2Cc2ccccc2OC)cc1,inactive: 65%
15,COC(=O)c1sc(NC(=O)/C=C/c2ccc(OC)c(OC)c2)c(C(=O)OC)c1C,inactive: 55%
16,COc1ccccc1NC(=O)CSc1nc2ccccc2c2nc(-c3ccccc3)nn12,inactive: 72%
17,COc1ccccc1-c1cc(C(=O)Nc2ccccc2C(F)(F)F)no1,inactive: 95%
18,CC(C)NC(=O)CCCN1C(=O)CCn2nc(-c3cccn3C)cc21,inactive: 79%
19,COC(=O)c1cc2c(cc1NC(=O)c1cnn(-c3ccc(C)cc3)c1-n1cccc1)OCO2,inactive: 88%
20,Cc1[nH]c2ccccc2c1C1N2CC3(C)CN1CC(C)(C2)C3=O (centres undefined),inactive: 62%
21,Cc1cccc(CNC(=O)CSCc2cnn(-c3ccccc3)c2-n2cccc2)c1,inactive: 75%
22,N/N=C1\C(=N/O)CCc2nonc21,inactive: 100%
23,Cc1cc(=O)[nH]c(SCC(=O)N2CCCCC2)n1,inactive: 103%

row,Compound,survival
1,COc1cc(C(=O)N2CCN(C(=O)C(Cc3cc(C)ccc3C)NC(C)=O)CC2)cc(OC)c1OC (centres undefined),inactive: 95%
2,CCOC(=O)c1ccc(NS(=O)(=O)c2cc(-c3onc(C)c3C)ccc2C)cc1,inactive: 66%
3,Cc1nn(C)c2c1c(C(F)(F)F)cc(=O)n2C(C)C(=O)NCc1ccc(Cl)cc1 (centres undefined),inactive: 83%
4,O=C(Nc1ccc(Br)cc1F)N1CCC(CN2CCCC2)CC1,inactive: 99%
5,CC1=C(C(=O)OCc2ccccc2)C(c2cccc(Cl)c2Cl)CC(=O)N1 (centres undefined),inactive: 106%
6,COc1cc(OC)c(C2Nc3c(C)cccc3-c3cc(C)nn32)cc1OC (centres undefined),inactive: 142%
7,COC(=O)c1ccc(NC(=O)CC2C(=O)N(c3ccc(Cl)cc3)C(=O)N2Cc2ccco2)cc1 (centres undefined),inactive: 32%
8,CCN1C(=O)c2ccccc2S(=O)c2ccc(C(=O)N3CCN(c4cccc(C)c4)C(C)C3)cc21 (centres undefined),inactive: 149%
9,CC1=C(c2ccc(C)cc2)S(=O)(=O)NC1=NCc1cccc(F)c1,inactive: 91%
10,COc1ccc(NC(=O)CN2CCCN(Cc3ccc(Cl)cc3)S2(=O)=O)cc1Cl,inactive: 67%
11,O=C(CN1C(=O)CSC1=O)CN1C(=O)CSC1=O,inactive: 101%
12,CCn1c(CSc2ncccn2)nnc1SCC(=O)N1CCc2ccccc21,inactive: 102%
13,O=C1CCC(C2CCC3(CC2)OCCO3)CC1,inactive: 103%
14,CCN1c2ccccc2-c2nc(SCC(=O)NCc3ccc(C)cc3)ncc2S1(=O)=O,inactive: 79%
15,CCOC(=O)c1ccc(NC(=O)Cn2cc(C(=O)c3ccc(CC)cc3)c(=O)c3ccc(C)nc32)cc1,inactive: 143%
16,CN(c1ccc(C(=O)NCc2cccnc2)cc1)S(C)(=O)=O,inactive: 111%
17,O=S(=O)(c1cccc2nsnc12)N(CCOc1ccccc1)C1CCCCC1,inactive: 99%
18,CCC(=O)Nc1cccc(C)c1,inactive: 115%
19,COc1ccc(CNC(=O)c2cnc3sc(N4CCCCCC4)nn3c2=O)cc1,inactive: 70%
20,CCOC(=O)c1cnc2ccccc2c1NCCc1ccc(OC)c(OC)c1,inactive: 53%

# Source: PubChem BioAssay AID463173 (ICCB-Longwood Screening Facility, Harvard Medical School, 2010)
